Sequences and labels used below:
T1: RBFOX1 RRM RbFoxmut (Fox-RRM*) (Homo sapiens, UniProt Q9NWB1 109-208, R118D;E147R;N151S;E152T)
T1 sequence: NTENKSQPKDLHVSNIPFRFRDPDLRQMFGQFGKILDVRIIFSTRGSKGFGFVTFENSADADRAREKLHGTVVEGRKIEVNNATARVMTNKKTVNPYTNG

B1: CGCAGCA (DNA:RNA)
RNA: GGGAGACCGGAAUUCAGAUUGUCCCGCAGCAUUAAAUCCCGUCGUAGCCACCA
DNA 1: CAATCTGAATTCCGGTCTCCC
DNA 2: TGGTGGCTACGACGGGATT
B2: UGCUCUC (DNA:RNA)
RNA: B1 RNA with C25U, A28U, G29C, C30U, A31C
DNA 1: CAATCTGAATTCCGGTCTCCC
DNA 2: TGGTGGCTACGACGGGATT
B3: GCCUUUC (DNA:RNA)
RNA: B1 RNA with C25G, G26C, A28U, G29U, C30U, A31C
DNA 1: CAATCTGAATTCCGGTCTCCC
DNA 2: TGGTGGCTACGACGGGATT
B4: UGCGCCC (DNA:RNA)
RNA: B1 RNA with C25U, A28G, G29C, A31C
DNA 1: CAATCTGAATTCCGGTCTCCC
DNA 2: TGGTGGCTACGACGGGATT
B5: CACGUCA (DNA:RNA)
RNA: B1 RNA with G26A, A28G, G29U
DNA 1: CAATCTGAATTCCGGTCTCCC
DNA 2: TGGTGGCTACGACGGGATT
B6: CAUUGUG (DNA:RNA)
RNA: B1 RNA with G26A, C27U, A28U, C30U, A31G
DNA 1: CAATCTGAATTCCGGTCTCCC
DNA 2: TGGTGGCTACGACGGGATT
B7: GGAACAG (DNA:RNA)
RNA: B1 RNA with C25G, C27A, G29C, C30A, A31G
DNA 1: CAATCTGAATTCCGGTCTCCC
DNA 2: TGGTGGCTACGACGGGATT
B8: CGGACGU (DNA:RNA)
RNA: B1 RNA with C27G, G29C, C30G, A31U
DNA 1: CAATCTGAATTCCGGTCTCCC
DNA 2: TGGTGGCTACGACGGGATT
B9: AGAGUUC (DNA:RNA)
RNA: B1 RNA with C25A, C27A, A28G, G29U, C30U, A31C
DNA 1: CAATCTGAATTCCGGTCTCCC
DNA 2: TGGTGGCTACGACGGGATT

Residue numbers refer to the chain shown, from its start. The list shows a part of the results.

The record followed here is publication PMC9911399, “Two distinct binding modes provide the RNA-binding protein RbFox with extraordinary sequence specificity”.

For the assay, the target named is T1, RBFOX1 RRM RbFoxmut (Fox-RRM*). The assay can be described thus: EMSA; HiTS-Eq, 1 nM pool, 10 min; buffer printed only for the single-RNA assays: 10 mM Tris pH 7.5, 150 mM NaCl, 3.4 mM EDTA, 0.001% NP-40, 30 C. The following applies: tags: His6 N-terminal (pET28a); label: 5' 32P. The method, boiled down:
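Purified RbFox RRM (wild type or mutant) was equilibrated for 10 min in 50 µL with 1 nM of a 5′-radiolabelled pool of RNA with 7 randomized nucleotides, its flanks annealed to DNA oligonucleotides, across increasing protein concentrations. Free RNA was separated by 8% native PAGE, excised, reverse-transcribed, PCR-barcoded and sequenced on an Illumina HiSeq 2500. Relative association constants came from read-count changes of each variant against the control reaction, normalised to the cognate motif.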
A general note: In EMSA bound probe runs differently from free probe, usually more slowly.
For the molecule B1, the binding signal was 0.158 KA relative to UGCAUGU. B2: the binding signal was 0.0594 KA relative to UGCAUGU.

As to B3, the binding signal was 0.0348 KA relative to UGCAUGU.

Turning to B4, the binding signal was 0.0827 KA relative to UGCAUGU. Take B5: the binding signal is 0.124 KA relative to UGCAUGU. For B6 the value was 0.166 KA relative to UGCAUGU; for B7, 0.096 KA relative to UGCAUGU; for B8, 0.104 KA relative to UGCAUGU.

B9: the binding signal was 0.0781 KA relative to UGCAUGU.
